# Results reported in PubChem BioAssay AID686978 (National Center for Advancing Translational Sciences (NCATS), 2013).
# Out of some 420,000 compounds screened, about 64,000 (15%) were called active. The shares of active, inactive and inconclusive entries below differ from those in the screen. Calls come from the whole dose curve; as a rule, active = well fitted inhibition curve with a large enough effect; inconclusive = small, poorly fitted or top-dose-only effect; inactive = flat fitted curve, though single readings scatter. Potencies of inconclusive entries are left out as doubtful fits.
# Assay: qHTS for Inhibitors of human tyrosyl-DNA phosphodiesterase 1 (TDP1): qHTS in cells in absence of CPT; note: nearly all actives have a fitted effect of over 55% in size
# Conditions: DT40 Tdp1-/- hTDP1 cells, no CPT, ATP luminescence, 48 h; activity change, negative = growth inhibition: at 46.2 µM (top of the series) unless noted
# Summary of the method: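 DT40 Tdp1-/-;hTDP1 cells, no CPT (DMSO vehicle only), 400 cells/well; compounds pin-transferred; ≥48 hr, 37 °C; CellTiter-Glo 30 min RT dark, luminescence read.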
# % is set by controls: 0 for no effect and ±100 for the full control effect; potency is the fitted concentration of half-maximal effect; tags give direction and shape of the fitted curve.
Compound,Potency,"activity change, negative = growth inhibition"
C=CCn1cc(C(=O)NCCCOC)c(=O)c2cc(S(=O)(=O)N(CC)CC)ccc21,inactive,–
Fc1cccc(Cl)c1Cn1nnc2c(NCc3ccncc3)ncnc21,"inconclusive [inhibitor, single point]",–
Cn1nc(C(=O)Nc2ccc3c(c2)OCCO3)c2ccccc2c1=O,inactive,–
CN(CC(=O)Nc1ccc(Cl)c(C(F)(F)F)c1)C(=O)c1cccc2cccnc12,active: 23.1 µM,–
Cc1cc(C(=O)NN=Cc2ccc(OC(=O)c3ccco3)cc2)c(C)o1,"inconclusive [inhibitor, partial curve, poor fit]",–
COc1ccccc1CC(NC(C)=O)C(=O)NC1CCN(c2nnnn2-c2ccccc2)CC1 (stereo not given),inactive,–
CN(Cc1ccccc1)C(=O)C1CCN(S(=O)(=O)c2cccc3nonc23)CC1,"inconclusive [inhibitor, single point]",–
COc1cccc(S(=O)(=O)N(C)C[C@@H]2OCc3cn(nn3)CCCC(=O)N([C@H](C)CO)C[C@H]2C)c1,–,inconclusive: -27.5% [inhibitor]
Cc1ccc(NC2=C(Cl)C(=O)OC2OC(=O)c2ccccc2)c(C)c1 (stereo not given),"inconclusive [inhibitor, single point]",–
CCOC(=O)c1c(C)[nH]c(C)c1C(=O)COC(=O)c1nn(CC)c(=O)c2ccccc12,inactive,–
COc1ccc(C)cc1NC(=O)Nc1ccc(Br)cn1,inactive,–
Cn1nc(-c2ccccc2)c(-c2nc(-c3ccccc3Cl)no2)c1Cl,"inconclusive [inhibitor, partial curve]",–
CCCCN1C(=O)c2cccc3cc(O)cc(c23)C1=O,"inconclusive [inhibitor, single point]",–
N#Cc1ccccc1S(=O)(=O)N1CCN(C(=O)[C@H](Cc2ccccc2)NC(=O)c2ccco2)CC1,"inconclusive [inhibitor, partial curve, poor fit]",–
Cc1cc(C)c(NC(=O)CSc2nnc(CNC(=O)c3ccco3)o2)c(C)c1,inactive,–
COC(=O)Cn1c(=NC(=O)CN2C(=O)CCC2=O)sc2cc(S(N)(=O)=O)ccc21,inactive,–
CCC(C)c1ccccc1NC(=O)COc1ccc(-n2cnnn2)cc1 (stereo not given),inactive,–
CC(C)c1ccc(OCc2nnc(SCC(=O)N3CCCCC3)o2)cc1,inactive,–
CCCCOc1ccc(C(=O)Nc2ccc(-c3cc4ccccc4oc3=O)cc2)cc1,inactive,–
CC(C)(C)OC(=O)N1CCC(c2c(C(=O)NCCN3CCc4ccccc4C3)cnn2-c2ccc(F)cc2)CC1,"inconclusive [inhibitor, single point]",–
